# Measured values from article PMC4336329 (PLoS ONE, 2015).
# Screen size: about 310,000 compounds; about 14,000 (4.5%) showed an effect of 50% or more. Effects have a minus sign here. This is one part of the list.
# Biological target: human ether-à-go-go-related gene (hERG) potassium channel (human, UniProt Q12809)
# Assay: primary screen, population patch clamp on CHO cells stably expressing hERG
# 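Also: peak tail current of the secondary pulse compared with the same well before compound.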
# human ether-à-go-go-related gene (hERG) potassium channel, sequence (Q12809 whole entry, looked up): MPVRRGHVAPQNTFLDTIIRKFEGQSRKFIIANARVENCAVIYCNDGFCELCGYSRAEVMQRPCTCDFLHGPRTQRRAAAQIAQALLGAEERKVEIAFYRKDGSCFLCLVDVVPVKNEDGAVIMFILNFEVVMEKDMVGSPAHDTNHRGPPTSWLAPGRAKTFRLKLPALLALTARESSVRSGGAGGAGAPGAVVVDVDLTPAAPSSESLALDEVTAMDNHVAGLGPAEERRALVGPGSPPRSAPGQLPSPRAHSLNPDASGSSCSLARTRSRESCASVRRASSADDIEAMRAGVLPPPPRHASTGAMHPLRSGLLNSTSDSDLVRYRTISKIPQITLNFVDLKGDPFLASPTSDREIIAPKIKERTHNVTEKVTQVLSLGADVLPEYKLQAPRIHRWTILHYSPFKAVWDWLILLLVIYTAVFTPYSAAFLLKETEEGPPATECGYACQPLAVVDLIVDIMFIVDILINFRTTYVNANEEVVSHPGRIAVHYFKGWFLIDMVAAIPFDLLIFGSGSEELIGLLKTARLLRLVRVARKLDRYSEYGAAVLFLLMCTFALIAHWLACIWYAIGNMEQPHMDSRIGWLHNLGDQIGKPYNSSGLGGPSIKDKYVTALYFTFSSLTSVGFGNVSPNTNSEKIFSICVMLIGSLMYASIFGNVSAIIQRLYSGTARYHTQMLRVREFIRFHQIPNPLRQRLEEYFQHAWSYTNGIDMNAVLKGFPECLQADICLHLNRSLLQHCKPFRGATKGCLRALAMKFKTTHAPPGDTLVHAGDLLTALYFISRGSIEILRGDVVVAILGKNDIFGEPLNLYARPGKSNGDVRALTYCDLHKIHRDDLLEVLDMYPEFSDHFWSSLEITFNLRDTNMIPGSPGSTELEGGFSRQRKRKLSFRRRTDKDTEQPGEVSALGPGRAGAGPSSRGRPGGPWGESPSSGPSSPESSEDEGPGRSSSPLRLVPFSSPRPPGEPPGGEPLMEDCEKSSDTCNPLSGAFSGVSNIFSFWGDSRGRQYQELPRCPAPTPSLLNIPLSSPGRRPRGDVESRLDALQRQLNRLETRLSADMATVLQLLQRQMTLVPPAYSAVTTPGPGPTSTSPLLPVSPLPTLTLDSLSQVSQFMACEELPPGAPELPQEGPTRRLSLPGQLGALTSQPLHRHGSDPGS
row,SMILES,"hERG current change (%, negative = inhibition) at 10uM [%]"
1,CCCCN1C(N)=NC[C@@H]1C(C)O (stereo partly shown),15.9
2,NNC(=O)c1cc2cc3ccccc3nc2s1,1.41
3,COc1ccc(NC(=S)NC2CCN(Cc3ccccc3)CC2)cc1OC,70.7
4,CNC(=O)c1cccc(NC(=O)C(C)c2ccc3cc(OC)ccc3c2)c1 (stereo not shown),-7.49
5,COc1cc(CCC(=O)NCc2ccc(F)cc2)cc(OC)c1OC,12.1
6,CC1CCN(CCCNC(=O)c2n[nH]c(=O)c3ccccc23)CC1,-3.17
7,O=C(Nc1ccccc1Cl)c1ccccc1Oc1ccc(C(F)(F)F)cc1[N+](=O)[O-],6.26
8,COc1ccc(NC(=O)c2sc(NC(=O)COc3ccccc3)nc2C)cc1,1.76
9,Cc1cc(NC(=O)CCC(=O)N(c2ccc(F)cc2)C(C(=O)NC2CCCC2)c2ccccc2)no1 (stereo not shown),29.1
10,CCn1nc(C(=O)NCc2ccco2)c(Cl)c1Cl,-9.51
11,COCCCN(CC(=O)O)S(=O)(=O)c1ccccc1,42.2
12,Cc1cc(C)nc(NC(=O)CCCC(=O)O)c1,12.1
13,COc1ccc(/C=N/NC(=O)c2cccc(NC(C)=O)c2)c(OC)c1,9.99
14,CS(=O)(=O)N(CC(=O)NCCSCc1ccccc1)c1ccc2c(c1)OCO2,-10.6
15,CCS(=O)(=O)N1CCN(C(=O)c2cc(OC)cc(OC)c2)CC1,1.51
16,COc1ccc(NC(=O)c2cccc(Oc3ccc([N+](=O)[O-])cc3Cl)c2)cc1,14.2
17,CCOC(=O)N1N=C(c2ccccc2)CC1(O)C(F)(F)F (stereo not shown),6.15
18,CC(C)CNC(=S)NC(=O)c1ccc(Cl)cc1Cl,3.88
19,CS(=O)(=O)N(CC(=O)Nc1ccc2c(c1)OCO2)c1ccc(Cl)cc1,-2.71
20,O=C(c1ccccc1)N1N=C(c2ccc(F)cc2)CC1(O)C(F)(F)F (stereo not shown),-5.31
21,O=C(CCl)Nc1cc(S(=O)(=O)N2CCOCC2)ccc1N1CCOCC1,11.9
22,CC(C)c1ccc(S(=O)(=O)N2CCN(C(=O)c3cccc(F)c3)CC2)cc1,-15.4

row,SMILES,"hERG current change (%, negative = inhibition) at 10uM [%]"
1,Nc1cnn(C2OC(CO)C(O)C2O)c(=O)n1 (stereo not shown),5.84
2,COc1ccc(NC(=O)NC2CC3CCCC(C2)N3Cc2ccccc2)cc1 (stereo not shown),-50.1
3,COc1cc(CCCN2C(=O)C(=O)NC[C@@H]2Cc2ccc(O)cc2)cc(OC)c1OC,21.6
4,CCCC(=O)Nc1ccc(OCC(O)CNC(C)C)c(C(C)=O)c1.Cl (stereo not shown),3.34
5,CCOC(=O)N1CCN(C(=O)c2cn(C)c3ccc(S(=O)(=O)N4CCCC4)cc3c2=O)CC1,3.16
6,CCOC(=O)c1[nH]c(C)c(C(=O)NCCc2ccc(OC)cc2)c1C,12.6
7,Cc1ccc2nc(N(CCCN(C)C)C(=O)c3cc(-c4cccs4)nc4ccccc34)sc2c1.Cl,-6.21
8,O=C(Nc1ccc(F)c(Cl)c1)C1CC(=O)N(Cc2ccco2)C1 (stereo not shown),-23.1
9,CC(C)C[C@@]12C(=O)N(c3cccc(Br)c3)C(=O)N1[C@H](c1ccc(Cl)cc1)[C@@H]1C(=O)N(C3CCCCC3)C(=O)[C@@H]12,-6.89
10,Cc1csc(NC(=O)CSc2nncs2)n1,13.6
11,COc1ccc(C(=O)N/C(=C/c2cccnc2)C(=O)NCc2ccco2)cc1OC,9.12
12,CCNC(=O)CSc1nc2sccc2c(=O)n1-c1ccccc1,5.62
13,COc1cc(NC(=O)C2=C(N3CCOCC3)/C(=C\c3ccc(Cl)cc3Cl)CC2)cc(OC)c1OC,3.81
14,N#Cc1ccc(Oc2nc(Nc3ccc(F)cc3)nc(N3CCCC3)n2)cc1,1.63
15,CC(C)N(C(=O)Nc1ccc2nsnc2c1)C(C)C,0.592
16,Nc1nonc1-n1nnc(C(=O)N/N=C/c2ccccc2)c1CSc1ccc(Cl)cc1,-23.6
17,O=C(NCc1ccccc1)c1ccc[nH+]c1.[Cl-],16.1
18,Cc1ccc(-n2nc(C(=O)c3ccccc3)n3c(=O)c(Cc4ccccc4)nnc23)cc1,-2.55
19,COc1ccc(N2C(=O)C(Cl)=C(Nc3c(C)n(C)n(-c4ccccc4)c3=O)C2=O)cc1,-8.05
20,O=C(CCl)Nc1cc(-c2ccccc2)nn1-c1ccccc1,-45.2
21,CC(=O)Nc1nc(C)c(Oc2ccc(C)cc2)c(=O)[nH]1,-1.03
